Experimental data from the antibiotic and cytotoxicity screens of Wong et al. (2023).
The list shows a part of the results.

Legend:
HSkMC = human skeletal muscle cells; assay: cytotoxicity call (relative viability < 0.9); conditions: 10 µM
HepG2 = assay: cytotoxicity call (relative viability < 0.9); conditions: 10 µM
S. aureus RN4220 = assay: growth inhibition call (relative growth <= 0.2); conditions: 50 µM

C[C@@H]1CNC(=O)CCO1
inactive: cytotoxicity call (HSkMC) | cytotoxicity call (HepG2) | growth inhibition call (S. aureus RN4220)

Cc1ccc(S(=O)(=O)N(C)C[C@H]2Oc3ccc(NC(=O)Cn4cnnn4)cc3CC(=O)N([C@H](C)CO)C[C@@H]2C)cc1
inactive: cytotoxicity call (HSkMC) | cytotoxicity call (HepG2) | growth inhibition call (S. aureus RN4220)

Cc1noc(C)c1NC(=O)Nc1cccc2c1O[C@H](CN(C)S(=O)(=O)c1ccccc1)[C@@H](C)CN([C@@H](C)CO)C2=O
inactive: cytotoxicity call (HSkMC) | cytotoxicity call (HepG2) | growth inhibition call (S. aureus RN4220)

C[C@@H]1CN([C@H](C)CO)C(=O)c2cccc(NC(=O)Nc3ccccc3)c2O[C@H]1CN(C)Cc1ccc(C(=O)Nc2ccccc2N)cc1
inactive: cytotoxicity call (HSkMC) | cytotoxicity call (HepG2) | growth inhibition call (S. aureus RN4220)

Cc1noc(C)c1NC(=O)N(C)C[C@H]1OCCCC[C@H](C)Oc2ccc(NC(=O)NC3CCCCC3)cc2C(=O)N([C@H](C)CO)C[C@@H]1C
inactive: cytotoxicity call (HSkMC) | cytotoxicity call (HepG2) | growth inhibition call (S. aureus RN4220)

C[C@H]1CN([C@@H](C)CO)C(=O)Cc2cc(NC(=O)Nc3cccc4ccccc34)ccc2O[C@@H]1CN(C)Cc1ccncc1
inactive: cytotoxicity call (HSkMC) | cytotoxicity call (HepG2) | growth inhibition call (S. aureus RN4220)

COc1ccc2c3c([nH]c2c1)[C@H](CO)N(C[C@]13CN(C)C1)C(=O)CN1CCOCC1
inactive: cytotoxicity call (HSkMC) | cytotoxicity call (HepG2) | growth inhibition call (S. aureus RN4220)

COc1ccc(NC(=O)N(C)C[C@H]2OCCCC[C@@H](C)Oc3ccc(NC(=O)c4ccccc4)cc3C(=O)N([C@H](C)CO)C[C@@H]2C)cc1
inactive: cytotoxicity call (HSkMC) | cytotoxicity call (HepG2) | growth inhibition call (S. aureus RN4220)

CCNC1=N[C@@H]2[C@@H](O)[C@H](O)[C@@H](CO)O[C@@H]2S1
inactive: cytotoxicity call (HSkMC) | cytotoxicity call (HepG2) | growth inhibition call (S. aureus RN4220)

C[C@@H]1CN([C@@H](C)CO)S(=O)(=O)c2ccc(C#CC3(O)CCCC3)cc2O[C@H]1CN(C)C(=O)Cc1cccnc1
inactive: cytotoxicity call (HSkMC) | cytotoxicity call (HepG2) | growth inhibition call (S. aureus RN4220)
